Data reported in the supplement of paper PMC3334620.
Whole data set: some 33,000 sequences, median “E-score (-0.5 to 0.5)” near -0.043, cut for the highest 2% near 0.37. The list shows a part of the results.

Molecular target: T1, Upc2 (UniProt Q12151)
T1 sequence: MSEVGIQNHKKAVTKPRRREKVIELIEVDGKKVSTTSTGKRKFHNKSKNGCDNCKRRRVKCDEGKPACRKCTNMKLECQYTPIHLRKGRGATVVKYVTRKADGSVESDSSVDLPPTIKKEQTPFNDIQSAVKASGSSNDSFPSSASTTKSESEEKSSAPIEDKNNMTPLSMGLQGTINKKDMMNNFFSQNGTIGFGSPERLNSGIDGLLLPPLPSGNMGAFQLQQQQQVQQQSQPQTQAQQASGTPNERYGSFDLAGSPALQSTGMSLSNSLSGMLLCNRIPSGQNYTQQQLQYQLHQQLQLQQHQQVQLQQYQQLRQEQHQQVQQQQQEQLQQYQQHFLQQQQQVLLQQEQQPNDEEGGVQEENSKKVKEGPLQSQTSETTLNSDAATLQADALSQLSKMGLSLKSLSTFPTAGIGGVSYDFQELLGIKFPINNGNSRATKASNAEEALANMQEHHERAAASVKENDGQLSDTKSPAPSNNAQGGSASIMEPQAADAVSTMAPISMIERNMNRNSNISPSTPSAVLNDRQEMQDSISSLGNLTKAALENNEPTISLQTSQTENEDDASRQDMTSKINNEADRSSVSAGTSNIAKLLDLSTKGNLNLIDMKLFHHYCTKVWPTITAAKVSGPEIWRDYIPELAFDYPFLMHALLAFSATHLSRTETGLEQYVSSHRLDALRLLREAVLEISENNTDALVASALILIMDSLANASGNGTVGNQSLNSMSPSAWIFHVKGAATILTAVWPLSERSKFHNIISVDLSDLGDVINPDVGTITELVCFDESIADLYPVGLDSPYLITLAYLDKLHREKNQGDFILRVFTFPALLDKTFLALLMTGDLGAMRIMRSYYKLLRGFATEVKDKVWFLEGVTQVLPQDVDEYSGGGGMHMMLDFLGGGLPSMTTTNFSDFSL
Assay: PBM E-score (8-mer binding enrichment) (E-score (-0.5 to 0.5)); higher = stronger / more preferred TF binding; most listed sequences are background and not binding sites
Conditions: protein concentration: 200 nM; construct: GST-full length
Summary of the method: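 E-scores (a modified Wilcoxon-Mann-Whitney statistic) were assigned by the Universal PBM Analysis Suite to every ungapped eight-base word pooled with its reverse complement. The input came from universal all-10-mer Agilent arrays made double-stranded by primer extension and probed with GST-tagged yeast transcription factors at about 100-200 nM. Fluorescent anti-GST detected bound protein, and masliner normalised the scans.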

Going from AGCCCAAC to ATCTTGAG, the “PBM E-score” value falls from -0.113 to -0.261.

Going from GGGACGAA to CAGGGCGA, the “PBM E-score” value rises from -0.198 to 0.0606.

Going from GGAGATAC to CGTGACAA, the “PBM E-score” value falls from -0.0204 to -0.0597.

First: CTTCCCGA
Second: AACGCATT
The “PBM E-score” value of the first is lower: -0.007 for the first, 0.144 for the second.

First: ACTGACCG
Second: CATCTTGA
The “PBM E-score” value of the first is higher: -0.00173 for the first, -0.234 for the second.

Going from TAAAAGTA to AATCAAGA, the “PBM E-score” value falls from -0.0192 to -0.0577.

Compared with ATGGCCCA, CCCCTCCC is lower in “PBM E-score” value: 0 for the first, -0.237 for the second.

Compared with CGTTACGA, GGTTCTGA is lower in “PBM E-score” value: 0.417 for the first, 0.144 for the second.

First: GCATGCGA
Second: GCCGTGAC
The “PBM E-score” value of the first is higher: 0.182 for the first, -0.162 for the second.

Going from TGATAAAA to GATTTCAA, the “PBM E-score” value falls from 0.0875 to -0.133.

Compared with ATAGGACG, AGCCACCT is higher in “PBM E-score” value: -0.208 for the first, -0.137 for the second.

Going from GGCTACCA to ATGATTAG, the “PBM E-score” value rises from -0.0831 to -0.0423.

Compared with CAGATCCA, CAGGTGAA is higher in “PBM E-score” value: -0.177 for the first, -0.0656 for the second.

First: CCAGCGAA
Second: CCGTACTC
The “PBM E-score” value of the first is lower: -0.136 for the first, 0.108 for the second.

Compared with GGTCACCA, CTATCGAG is higher in “PBM E-score” value: -0.196 for the first, -0.0943 for the second.

Going from CGTGGGGC to AAGCTAAT, the “PBM E-score” value rises from -0.141 to 0.0748.

Going from AGTTATCG to CTGTGTAC, the “PBM E-score” value rises from 0.196 to 0.269.

First: ACCAACAT
Second: GCCGCCTA
The “PBM E-score” value of the first is higher: 0.102 for the first, -0.276 for the second.

First: GTCAACAA
Second: AGCCAGCC
The “PBM E-score” value of the first is lower: -0.182 for the first, -0.147 for the second.

Compared with ACTGTCTG, AAATAGTA is higher in “PBM E-score” value: -0.278 for the first, -0.0147 for the second.

First: CCAAAACC
Second: AATGCTGT
The “PBM E-score” value of the first is higher: -0.0136 for the first, -0.0791 for the second.

Compared with AGGCTAAT, CACGCTTA is higher in “PBM E-score” value: -0.0165 for the first, 0.0593 for the second.

Compared with CATGTACC, GCCTGCCA is lower in “PBM E-score” value: -0.262 for the first, -0.317 for the second.

Going from AGTGTGCC to CGGGGGTA, the “PBM E-score” value rises from -0.217 to -0.14.

First: CCCGAAAA
Second: GCCGACAC
The “PBM E-score” value of the first is higher: 0.00574 for the first, -0.116 for the second.

First: GAGGATTA
Second: GAACTTGC
The “PBM E-score” value of the first is higher: -0.0558 for the first, -0.108 for the second.

Compared with CTTCGATA, ACCCGGAG is lower in “PBM E-score” value: 0.116 for the first, 0.0518 for the second.

Compared with GCAGCACA, GGCAGTAA is higher in “PBM E-score” value: -0.0788 for the first, -0.0007 for the second.

Going from CATAAGAC to ATGGGTAG, the “PBM E-score” value falls from 0.0365 to 0.00021.

Going from TGACCGAA to ACTGTAAA, the “PBM E-score” value falls from 0.127 to 0.103.

Compared with AAACCAAA, GAGAGCAA is lower in “PBM E-score” value: 0.118 for the first, -0.166 for the second.

Compared with AGCTTTAA, GAATCGTA is higher in “PBM E-score” value: 0.0562 for the first, 0.387 for the second.

Going from AGATTACA to GCTAAACC, the “PBM E-score” value rises from -0.017 to 0.03.

Going from CCTCAGCC to GGTCAACC, the “PBM E-score” value rises from -0.267 to -0.0842.

First: GAGCCGCC
Second: CTGTCCCA
The “PBM E-score” value of the first is lower: -0.0701 for the first, -0.016 for the second.

Going from CTCGTCAA to AGTTATAC, the “PBM E-score” value rises from 0.0036 to 0.333.

Compared with ACCGAGAC, ACTAAGAC is lower in “PBM E-score” value: 0.152 for the first, -0.0582 for the second.

First: GTTCGCGA
Second: CGTCGAAA
The “PBM E-score” value of the first is higher: 0.313 for the first, 0.0795 for the second.

Compared with GCTTCAAC, CCCTCCGG is lower in “PBM E-score” value: -0.0299 for the first, -0.155 for the second.

Going from GGCCGAAC to GCATGTCA, the “PBM E-score” value falls from -0.019 to -0.0782.

Compared with CAACCGTG, CCCACATC is lower in “PBM E-score” value: 0.0422 for the first, -0.0941 for the second.

Compared with ACGAGTAC, AGAGGAGG is lower in “PBM E-score” value: 0.419 for the first, -0.155 for the second.

First: ATACGCCA
Second: CACGCCCA
The “PBM E-score” value of the first is higher: 0.324 for the first, -0.24 for the second.
